# Screen size: about 360,000 compounds; about 6,000 (1.7%) were called active. Inconclusive means that the source gave no clear call. Such entries were picked first, then a sample of the others. The call rests on the fitted dose curve; in most records, active means well fitted cell-killing curve with a large enough effect; inconclusive means small, poorly fitted or top-dose-only effect, or effect the other way; inactive means flat fitted curve, though single readings scatter. Potencies of inconclusive entries are left out as doubtful fits.
# Assay: qHTS for induction of synthetic lethality in tumor cells producing 2HG: qHTS for the HT-1080-NT fibrosarcoma cell line;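 further: NT is the 2HG producing partner of a matched IDH1 knockdown line; nearly all actives have a fitted effect of over 55% in size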;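 on activity, negative = less viability: 0% = DMSO-treated cells and -100% = media-only wells without cells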
# Details: HT-1080-NT fibrosarcoma viability, CellTiter-Glo ATP luminescence, 48 h; activity, negative = less viability: at 46.1 µM (top of the series) unless noted
# Outline: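 A 48-hour cytotoxicity screen used HT-1080-NT cells plated 2 hours before compound delivery. ATP-based CellTiter-Glo luminescence measured viability, normalized to DMSO and no-cell controls.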
# Potency means the concentration at half of the fitted maximal effect; tags describe the fitted curve by direction and shape.
SMILES,Potency,"activity, negative = less viability"
COc1ccc(OC)c(N(CC(=O)N2CCCC2)S(C)(=O)=O)c1,inactive,
CN(CC(=O)Nc1cccc(F)c1)C(=O)c1ccc2c(c1)CC(c1ccccc1)OC2=O (stereo unspecified),"inconclusive [cytotoxic, single point]",
CC(C)c1ccc(NC(=O)N(CCc2nc3ccccc3[nH]2)C2CCCC2)cc1,"inconclusive [cytotoxic, single point]",
CCN(C(=O)C1CCCN(c2ncnc3c2nc2n3CCCCC2)C1)c1cccc(Cl)c1 (stereo unspecified),"inconclusive [cytotoxic, single point]",
CCCCCC(=O)N1C[C@H](n2cc(COC(=O)c3ccccc3)nn2)[C@@H](O)C[C@@H]1c1ccc(C)cc1,"inconclusive [cytotoxic, single point]",
CCC1(C)Cc2ccccc2-c2nc3n(c(=O)c21)CCCCC3 (stereo unspecified),"inconclusive [cytotoxic, single point]",
COc1cc(/C=C(/C#N)C(=O)Nc2ccc(Cl)cc2)ccc1Oc1nc(Cl)ncc1F,inactive,
CN(C)S(=O)(=O)c1ccc(C(=O)NCC(=O)N/N=C/c2ccco2)cc1,inactive,
O=C(CSc1n[nH]c(=O)n1-c1ccccc1)N1CCOCC1,inactive,
FC(F)(F)c1cnc(-c2cnc(-c3ccccn3)nc2)c(Cl)c1,"inconclusive [rising, full curve, poor fit]",
COc1ccc(N2CCN(Cc3nnnn3C3CCCCC3)CC2)cc1,"inconclusive [rising, partial curve]",
COc1ccc(C(=O)NNc2ccccc2)cc1OC,"inconclusive [cytotoxic, partial curve]",
O=C1N(c2ccccc2C(F)(F)F)O[C@@]1(c1ccccc1)C1CCCCC1,"inconclusive [cytotoxic, single point]",
COC(=O)[C@@]1(Cc2ccc(F)cc2)[C@H]2c3cc(C(=O)N4CCCC4)n(CC4CC4)c3C[C@H]2CN1C(=O)c1ccccc1,"inconclusive [cytotoxic, single point]",
COC(=O)c1ccc(CNC(=O)CNc2cc(C(F)(F)F)ccc2N2CCOCC2)cc1,inactive,
COc1ccc(/C=N/NC(=O)c2nc(-c3ccccc3)n(-c3ccccc3)n2)c(O)c1,,inconclusive: -27% [cytotoxic]
Cc1ccc(S(=O)(=O)N2CCC3(CC2)OCCO3)cc1,inactive,
O=C(NC1CCCC1)C(c1ccncc1)N(Cc1ccccc1)C(=O)c1ccc(-c2ccccc2)[nH]1 (stereo unspecified),"inconclusive [cytotoxic, single point]",
CCCCC(=O)NNC(=S)NC(=O)c1ccc(C)cc1,"inconclusive [cytotoxic, single point]",
Cc1ccc(S(=O)(=O)CCc2nnc(NC(=O)CCl)s2)cc1C,"inconclusive [cytotoxic, partial curve]",
CCc1nc(N2CCCC(C)C2)c2oc3ccccc3c2n1 (stereo unspecified),"inconclusive [cytotoxic, single point]",

SMILES,Potency,"activity, negative = less viability"
Clc1ccc(/C=N/NC2=Nc3cccc4cccc2c34)cc1,"inconclusive [cytotoxic, single point]",
COc1ccc(C2CC(c3ccccc3)=NN2c2ccc(C(N)=O)cc2)cc1 (stereo unspecified),"inconclusive [cytotoxic, single point]",
COc1cc(NC(=O)C(Cc2ccccc2)n2cccc2)cc(OC)c1 (stereo unspecified),inactive,
C[C@@H]1CN([C@@H](C)CO)S(=O)(=O)c2ccc(Br)cc2O[C@H]1CN(C)Cc1ccccc1F,"inconclusive [cytotoxic, single point]",
O=c1c(Cl)c(N/N=C/c2ccc(Br)cc2)cnn1-c1ccccc1,"inconclusive [cytotoxic, single point]",
C=CC[C@H](CC(=O)N(CCO)Cc1ccccc1)C(=O)N[C@H](COC(=O)[C@@H](CC=C)CC(=O)OC(C)(C)C)Cc1c[nH]c2ccccc12,"inconclusive [cytotoxic, single point]",
Cc1cccc(COc2ccccc2C(=O)OCC(=O)N(C)c2c(N)n(Cc3ccccc3)c(=O)[nH]c2=O)c1,inactive,
COc1ccc(NC(=O)c2cnc(SC)nc2)cc1,"inconclusive [cytotoxic, single point]",
N#C/C(=C\c1ccc([N+](=O)[O-])o1)c1nc2ccccc2[nH]1,active: 5.8 µM,
COc1cc(C2Nc3cc(C)c(C)cc3NC3=C2C(=O)CC(C)(C)C3)ccc1OC(C)=O (stereo unspecified),inactive,
Cc1cc(C)n2nc(C(=O)N/N=C/c3c4ccccc4cc4ccccc34)nc2n1,"inconclusive [cytotoxic, single point]",
C=CCn1cc(CN2CCC(C(=O)Nc3cccc(-c4cccc(Cl)c4)c3)CC2)c(C)n1,"inconclusive [cytotoxic, single point]",
COC(=O)[C@@]12C[C@@H](CC(=O)NCCCCc3ccccc3)C(=O)N(Cc3ccc4c(c3)OCO4)C1=CCC(C)(C)C2,"inconclusive [cytotoxic, single point]",
COc1ccc(C2=Nn3c([n+](C)c4ccccc43)SC2)cc1,"inconclusive [cytotoxic, single point]",
C[C@@H]1CCCCO[C@@H](CN(C)CC2CCCCC2)[C@@H](C)CN([C@H](C)CO)C(=O)c2cc(NS(=O)(=O)c3ccc(Cl)cc3)ccc2O1,active: 16.4 µM,
Cc1sc2ncnc(Oc3ccc(-n4ccnc4)cc3)c2c1C,"inconclusive [cytotoxic, single point]",
Cc1c(NC(=O)Nc2ccccc2Cl)sc(=S)n1C,"inconclusive [cytotoxic, single point]",
CCN(CC)CCN1C(=O)c2oc3ccccc3c(=O)c2C1c1cccc(Br)c1 (stereo unspecified),inactive,
C=C1CCc2c([nH]c3ccc(OCC(C)C)cc23)C1=O,active: 7.31 µM,
COc1ccc(NC(=O)CCS(=O)(=O)c2ccccc2Cl)cc1S(=O)(=O)Nc1ccc(Cl)cc1,"inconclusive [cytotoxic, single point]",

# Reference: PubChem BioAssay AID686970 (National Center for Advancing Translational Sciences (NCATS), 2013)
